Test results reported in publication PMC6919601, “Identification of Plasmodium dipeptidyl aminopeptidase allosteric inhibitors by high throughput screening” (PLoS ONE, 2019).
The campaign covered roughly 110,000 compounds. About 230 (0.21%) showed an effect of 50% or more. The list shows a part of the results.

What follows are molecules tested against DPAP1 (Plasmodium falciparum, UniProt Q8IIJ9) (assay: primary screen, percent inhibition; read by cleavage of a fluorogenic dipeptide substrate; higher = more effect of the substance).
Sequence of DPAP1 (Q8IIJ9 whole entry, looked up): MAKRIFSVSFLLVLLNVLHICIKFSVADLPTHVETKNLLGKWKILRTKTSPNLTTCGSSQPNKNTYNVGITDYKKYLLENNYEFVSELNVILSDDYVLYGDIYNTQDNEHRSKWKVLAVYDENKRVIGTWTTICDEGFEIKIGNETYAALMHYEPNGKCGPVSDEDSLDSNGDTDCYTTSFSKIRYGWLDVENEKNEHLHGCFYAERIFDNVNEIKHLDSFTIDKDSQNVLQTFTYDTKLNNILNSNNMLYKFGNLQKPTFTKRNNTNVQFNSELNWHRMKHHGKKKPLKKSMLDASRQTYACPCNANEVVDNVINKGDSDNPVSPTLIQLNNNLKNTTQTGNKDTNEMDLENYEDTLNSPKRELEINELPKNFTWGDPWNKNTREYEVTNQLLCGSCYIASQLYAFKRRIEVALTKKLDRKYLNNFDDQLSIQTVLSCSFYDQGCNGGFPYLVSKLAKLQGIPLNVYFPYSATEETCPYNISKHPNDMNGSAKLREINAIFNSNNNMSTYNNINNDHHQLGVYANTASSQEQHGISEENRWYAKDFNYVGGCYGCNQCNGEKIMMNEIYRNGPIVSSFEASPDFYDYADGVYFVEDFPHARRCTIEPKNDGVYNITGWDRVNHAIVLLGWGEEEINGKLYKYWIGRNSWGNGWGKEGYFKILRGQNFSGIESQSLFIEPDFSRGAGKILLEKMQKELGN
Design: species or system P. falciparum D10 trophozoite lysates; single well
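Further: 30 min substrate incubation versus DMSO and 10 µM JCP410 controls.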

| SMILES | % Inhibition @ 10 uM [%] |
| --- | --- |
| O=C(C1CCCN(c2ncnc3c2nc2n3CCCCC2)C1)N1CCN(C2CCCCC2)CC1 (centres unmarked) | 4.39 |
| CCSc1nnc(-c2cccnc2)n1-c1ccc(Cl)c(C)c1 | -3.21 |
| O=C(O)c1c2c(nc3ccc(S(=O)(=O)N4CCC(C(=O)NC5CCCC5)CC4)cc13)CCCCC2 | -1.37 |
| O=C(c1ccccc1)c1cnc2cc3c(cc2c1N1CCN(Cc2ccccc2)CC1)OCO3 | 0.695 |
| CN(CCC#N)C12CC3CC(CC(C3)C1)C2 | 4.63 |
| O=C(NC12CC3CC(CC(C3)C1)C2)c1cc2nc(-c3ccco3)cc(C(F)(F)F)n2n1 | 0.221 |
| Cc1cccc(C)c1OCCCN1CCC(C)CC1 | 2.25 |
| O=C(O)C1CSC(c2ccccc2O)N1 (centres unmarked) | -1.45 |
| COCCNC(=O)C1CCCN(c2ncnc3onc(-c4ccc(F)cc4)c23)C1 (centres unmarked) | -1.79 |
| Cc1ccc(C2CCN(C(=O)c3cnn(C)c3C3CCN(C(=O)OC(C)(C)C)CC3)C2)cc1 (centres unmarked) | 5.09 |
| CC(C)c1ccc(/C=C/C(=O)Nc2cccc(C(F)(F)F)c2)cc1 | -2 |
| COc1cc(C(=O)NCCC(=O)NC2CCC(C)CC2)cc(OC)c1OC (centres unmarked) | 1.16 |
| Cc1c(C(=O)N2CCN(c3cccc(Cl)c3)CC2)cccc1[N+](=O)[O-] | 4.9 |
| CN(C)/C=C/C=C1C(=O)CC(C)(C)CC1=O | 1.62 |
| Cc1ccc2c(c1)[C@@H]1CN(C)CC[C@H]1N2C(=O)C12CC3CC(CC(C3)C1)C2 | 8.92 |
| Cc1ccc(CNC(=O)C2(NS(=O)(=O)c3cccc4cccnc34)CCCCC2)cc1 | -0.692 |
| CCn1c(C(=O)O)c(CC(=O)NC2CCCCCC2)c2ccccc21 | -4.74 |
| Cc1ccc(NC(=O)c2cccc([N+](=O)[O-])c2)cc1C | 0.135 |
| O=C(Nc1ccccc1)N1CCOCC1 | -3.95 |
| Cc1ccc(S(=O)(=O)Cc2ccc(C(=O)NCc3ccc4c(c3)OCO4)o2)cc1 | 0.458 |
| O=C(O)CN1CC(=O)Oc2ccccc21 | -5.5 |
| O=C(CN1C(=O)c2cccc3cccc1c23)NC1CC2CCC1C2 (centres unmarked) | 2.06 |
| Cc1ccc(-n2c(-c3ccccc3)cc3c2CC(C)(C)CC3=O)cc1C | 3.61 |
| Sc1nnc(-c2ccncc2)n1-c1ccccc1 | 1 |
| CCOC(=O)c1[nH]c2ccccc2c1NC(=O)C(C)(C)C | 0.121 |

| SMILES | % Inhibition @ 10 uM [%] |
| --- | --- |
| CCn1c(CCNC(=O)Cc2ccccc2)nc2ccccc21 | -0.58 |
| CC(=O)Nc1ccc(S(=O)(=O)Nc2nc3ccccc3nc2Nc2ccccc2)cc1 | -0.216 |
| CCOC(=O)c1c(CN2CCOCC2)n(-c2ccccc2)c2cc(Br)c(O)cc12 | 4.95 |
| Cc1ccc(C2(c3ccc(C)o3)C(=O)Nc3ccccc32)o1 | 4.68 |
| CCNC(=O)C12N=CNN=C1N(C)C(=O)N2C (centres unmarked) | -5.15 |
| O=C(N/C(=C/c1ccccc1)C(=O)N1CCc2ccccc2C1)c1ccccc1 | 2.18 |
| Cc1c(C)n(C)c2ccc(C(=O)Nc3ccc(C(N)=O)cc3)cc12 | -4.89 |
| Cc1nn(CC(=O)NC2CCCC(C)C2C)c(=O)c2c1sc1ccccc12 (centres unmarked) | -1.01 |
| COc1cc(-c2cc(NC(=O)Cc3noc4ccc(C)cc34)on2)cc(OC)c1OC | -1.38 |
| Cc1nc2c(c(C)c1CCC(=O)NCC1CCCO1)c(=O)n(C)c(=O)n2C (centres unmarked) | -8.91 |
| Nc1c(C(=O)Nc2nccs2)sc2nc3c(c(-c4cccs4)c12)CCCCC3 | -2.17 |
| Cc1csc(NC(=O)CCc2c(C)nc3c(-c4ccc(F)cc4)c(C)nn3c2C)n1 | -4.1 |
| Clc1ccc(CN2CCN(Cc3cccnc3)CC2)cc1 | 6 |
| O=S1(=O)N=C(Nc2c(Cl)cc(Cl)cc2Cl)c2ccccc21 | -1.57 |
| C=CCSc1ncc(C(=O)OCC)c(N)n1 | 2.9 |
| COc1cc(NC(=O)C23CC4CC(CC(C4)C2)C3)c(OC)cc1Cl | 0.317 |
| Nc1nnc(SCC(=O)Nc2ncc(Br)cc2Br)s1 | 17.9 |
| CC(NC(=O)c1cccc(Br)c1)c1ccccc1 (centres unmarked) | -1.69 |
| Cc1ccc(-c2nnc(NC(=O)c3cc4c([nH]c5ccccc54)c(C)n3)s2)cc1 | -6.7 |
| CCn1c(=N)c(C(=O)NC)cc2c(=O)n3ccccc3nc21 | 5.1 |
| Cc1ccc(-n2c(S)nnc2Cn2ncc3ccccc3c2=O)cc1 | 2.31 |
| CC(C)c1ccc(CN2CCN(C)CC2)cc1 | -7.6 |
| CN(CC(=O)NC1CCCCCC1)S(=O)(=O)c1ccc(-c2ccc(O)nn2)s1 | -10.2 |
| CCc1c(CN2CCOCC2)csc1C | 2.83 |
| CC(C)Cc1cc(C(=O)NCCc2ccccc2)no1 | 1.23 |
